Consider 112 variants from the RNAGym collection of RNA variant scans (doi:10.7554/elife.90254).

The source gives no read counts; variants with many changes may rest on few reads.

B1: LINE1-mini (parent)
chain: GGCAGAGCUCAACACAGCGUGGCAAAGUGGCUGUGGCUAGACUGCC

The data set covers variants of B1. In words: self-cleavage, relative activity (ratio to wild type); higher = more cleavage; in vitro, sequencing; the parent is a self-cleaving ribozyme.
Regarding GGCAGAGCUUAACACAGCGUGGCAAAGUGGCUGUAGCUACACUGCC, the self-cleavage worked out at 0.1. The figure for GGCAGAGCUUAACACAGCGUGGCAAAGUGACUGUGGUUAGACUGCC is 0.04; for GGCAGAGCUUAACACAGCGUGGCAAAGCGGCUGUGGCUUGACUGCC it is 0.38. For GGCAGAGCUUAACACAGCGUGGCAACGUCGCUGUGUCUAGACUGCC the value was 0.04; for GGCAGAGCUUAACAUAGCGUGGCAAGGUCGCUGUGACUAGACUGCC, 0.03; for GGCAGAGCUUAACACAGCCUGGCAGCGUGGCUGUGGCUAGGCUGCC, 0.05. For GGCAGAGCUUAACACAGCGUGGCACAGUGGCUGGGGCAAGACUGCC the value was 0; for GGCAGAGCUUAACAAAAGCUGGCAAAGUGGCUGUGGCUAGAGGGCC, 0.01; for GGCAGAGCUUAAAACAGCGAGGCAAAGUGGCUGUGGCUGGACUGCC, 0. Consider GGCAGAGCUUAACACAGCGUGGCAAAGUGGUUGUGGCUUCACUGCC, for which the self-cleavage came out at 0.05. Consider GGCAGAGCUUAACGCAGCGUGGCAAAGUGGCAGUGGCUAGAUUGCC, for which the self-cleavage is 0.01. The figure for GGCAGAGCUUAACACAGCAUGGCAAAGUGGUUGUGGCUAGGCUGCC is 0.03; for GGCAGAGCUUAUCACAGCGUCGCAAAGUGACUGUGGCUAGACUGCC it is 0.11; for GGCAGAGCUUAACACUGCGUGGCAAAGUGGCUGUGGCUAGUCCGCC it is 0.02. The figure for GGCAGAGCUUAACGCAGCGUGGCAAAGUGGCUGUGGCUAGAGUGCC is 0; for GGCAGAGCUUAACACAGCGUGGCAAAUUGGCUGGGGCUAGAUAGCC it is 0.01; for GGCAGAGCUUAAAACAGCGUGGCAAAGUGGCUGUGACUAGAUUGCC it is 0.03. With GGCAGAGCUUACCACAGCGUGGCAAAGUGGCUGUGGCUAGAUUGCC, the self-cleavage is 0.06.

Turning to GGCAGAGCUUAAAACAGCGUGCCAAAGUGGCUGUGGCUAGACUGCC, the self-cleavage was 0.04. The figure for GGCAGAGCUUAACACAGCGUGGAAAAGUGGCUGUGGCUGGACUGCC is 0.05; for GGCAGAGCUUAUCAUAGCGUGGCAAAGUGGGCGUGGCUAGAUUGCC it is 0.02; for GGCAGAGCUUAACACAGCGUGGCAAAGUGUCUUUGGCUAGACUGCC it is 0.04.

On to GGCAGAGCUUAACACAGUGUAGCAAAGUGGCUGCGGCUAGACUGCC, for which the self-cleavage is 0.03. As for GGCAGAGCUUAACACAACGUGGCAAAGUGACUGUGGCUAGACUGCC, the self-cleavage was found to be 0.05.

As to GGCAGAGCUUAACACAGUGUGGCAAAGUGGUUGUGGCUAGACUGCC, the self-cleavage amounted to 0.02. Consider GGCAGAGCUUAACACAGCGUGACAAAGUGGCACUGGCCAGACGUCC, for which the self-cleavage was found to be 0.02.

As for GGCAGAGCUUAACACAACGUCGCAAAGUGGCUCUGGCUAGACUGCC, the self-cleavage worked out at 0.04. For GGCAGAGCUUAACACUGCGUGGCCAAGUGGCUGUGGCUAGACUGCC the value was 0; for GGCAGAGCUUAACAGAGCGUGGCAAAGUGGCUGUGGCUAGACUGGC, 0.05; for GGCAGAGCUUAACGCAGCGUGACAAAGUGGCUGUGGCUAGACUGCC, 0.11. GGCAGAGCUUAACACAGCGUGGCAGAGUGGCUGUGGCUGGACUGCC: the self-cleavage came out at 0.13. The figure for GGCAGAGCUUAAGACAGAGUGGCAAAGCGGCUUUGGCUAGACUGCC is 0.02. The figure for GGCAGAGCUUAACACAUCGUGGCAAGCUGGCUGUGGCUAGACUGCC is 0.02; for GGCAGAGCUUAACACAGGGUGGUAAAGUGGCUGUGGCUAGACUGCC it is 0.15; for GGCAGAGCUUAACACAGCGUGGCAAAGUGACUGUGACUAGACUGCC it is 0.04. With GGCAGAGCUUAACGCAGCGUCGCAAAGUGGCUGUGGCUAGACUGCC, the self-cleavage stood at 0.14. The figure for GGCAGAGCUUAACACAGCGUGGCAAAAUGGCUUUGGCUUGACUGCA is 0.04; for GGCAGAGCUUAACAGGGCUUGGCAAAGUGGCUGUGGCGAGACUGCC it is 0.03. The figure for GGCAGAGCUUAACACACCGUGGCGAAUUGGCGGUGGCUAGACUGCC is 0.01; for GGCAGAGCUUAACGCAGCGUGGCAAAGUGGCUGUGGCAAGACUGCC it is 0.02. The figure for GGCAGAGCUUAACACAGUGUGGAAGACUGGCUGUGGCUAGACUGCC is 0.12; for GGCAGAGCUUAACGCAGCGUGGCAAAGUGGCUGUUGCUAGACUGCC it is 0.07; for GGCAGAGCUUAACACAGGGUGGCAGAGUGGCUGUGGCUAGACAGCC it is 0.02. On to GGCAGAGCUUAACGCAGCGUGGCAAAGUGGGUGUGGCUAGACUGCG, for which the self-cleavage stood at 0.07. The figure for GGCAGAGCUUAACACAGCGUGGCUAGGUGGAUGUGGCUAGACUGCC is 0.03. For GGCAGAGCUUAACACAGCGUGGCAAAGUGACUGUGGCUACACUGCA the value was 0.03; for GGCAGAGCUUAACACAGAGUUGCAAAGUGGCUGUGGCUAGACUGCC, 0.49. For the variant GGCAGAGCUUAACACAGCGUGGAAAAGUGGCUGUGGCUAGCCUGCC, the self-cleavage worked out at 0.02.

As to GGCAGAGCUUAACACAGCGUGGAAAAGUAGCUGUGGGUAGACUGCC, the self-cleavage amounted to 0.01.

Regarding GGCAGAGCUUAACACAGCGUCGCAAAGUUGCUGGGAUUAUACUGCC, the self-cleavage stood at 0.01.

For the variant GGCAGAGCUUAACACAGCGUGGCACAGUGGCUGUGGCUCGACUGCC, the self-cleavage worked out at 0.14. For GGCAGAGCUUAACACAGCGUGUCAAAGUGGCUGUCGCUAGACUGCC the value was 0.03; for GGCAGAGCUUAACACAGCGUGGAACAGUGGAAGUGGCUAAACUGCC, 0.02. For GGCAGAGCUUAACACAGCGUGGCAAAAUGGCUGUGUCUAGACUGCC the value was 0.04.

Turning to GGCAGAGCUUAACACAGCGUGGCAAAUUGGCUAUGGCUAGACGGCU, the self-cleavage was determined as 0.01.

For GGCAGAGCUUAACAGAGCGUCGCAAACUGGCUGUGGCUAGACUCCC, the self-cleavage was 0.01. For the variant GGCAGAGCUUAACACCGCGUGGCAAAUUCGCUGUGGCUAUACUGCC, the self-cleavage is 0.02. Turning to GGCAGAGCUUAACACAGCGUGGCAAAGUGGCUGUGUCUAGGCGGCC, the self-cleavage turned out to be 0. In the case of GGCAGAGCUUAACACAGCUUGGCAAAGUGGAUGUGGCUAGACUGCC, the self-cleavage stood at 0.05. For GGCAGAGCUUAACACACCAUGGCAAAGUGACUGUGGAUAGACUGCG the value was 0.02; for GGCAGAGCUUAACACAGCGUGGCAAAGUGGCUGUGGCUAUCCUGCC, 0.06; for GGCAGAGCUUAACACCGCGUGGCAAAGUGCCUGUGGCUAGACUGCC, 0.09.

Consider GGCAGAGCUUAACACAGCGUGGCAAAAUGGAUGUGGCUAGACUGGC, for which the self-cleavage was 0.06. With GGCAGAGCUUAACACAGCGUGGCAAAGUGGGUGUGGCUAGACUACA, the self-cleavage worked out at 0.02. The figure for GGCAGAGCUUAACGCAGCCUGGCAAAGUGGCUGUGGCUAGACUGCC is 0.05; for GGCAGAGCUUACCACAGUGUGGGAAAGUGGCUGUGACUAGACUGCC it is 0.02; for GGCAGAGCUUAACACAGCUUGGCAAAGUGGCUGUAGCUAGACUGCC it is 0.05.

GGCAGAGCUUAACACAGCGUGGCAAAGUGGCUUCGGCUAGACUGCC: the self-cleavage turned out to be 0.04. For GGCAGAGCUUAACCCAGCGUGUCAAAGUGGCUGUGGAUAGACUGCC the value was 0.06. In the case of GGCAGAGCUUAACACAACGUGGCAAAGUGGCUGUGGUUAGAGUGCC, the self-cleavage came out at 0.07. For GGCAGAGCUUACCACAGCGUGGCAAAGUGGCUGUGGGAAGACUGCC the value was 0.01; for GGCAGAGCUUAACACAGCGCGGCAAAGUUGCUGUGGCUAGACUGCG, 0.63; for GGCAGAGCUUAACACAGCGUGGCUAAGUGGCUGUGGCUUGACUGCC, 0.41. The figure for GGCAGAGCUUAAGACAGCGUGGCAACGUGGCUGUGGUUAGACUGCC is 0.03; for GGCAGAGCUUAACACAGCGUGGCAAAGUGGAUGUGGGUAGACUGCC it is 0.01; for GGCAGAGCUUAACAUAGCGGGGCAAAGUGGCUGUGGGUAGACUGCC it is 0.04. The figure for GGCAGAGCUUAUCACAUCGUGGCAAAGUGGCUGUGGAUGGACUGCC is 0.03; for GGCAGAGCUUAACACAGCGUGGCAAAGUGGCUGUGUCUGGAGUGCC it is 0.

As for GGCAGAGCUUAACACAGCGCGGCAAAGUGGCUGUGGCUUGACUGCC, the self-cleavage was found to be 0.17. With GGCAGAGCUUAACACAGCGUGGCAAAGUGGCUACGGCUAGACUGCC, the self-cleavage worked out at 0.02. The figure for GGCAGAGCUUAACACAGCGUGGCAAAGUUGUUGUGGCUAGACUGCC is 0.18; for GGCAGAGCUUAACACAGCGUGGCAAAGUUGGUGUGGCUAGACUGCC it is 0.01; for GGCAGAGCUUAACACUGCGUGGUUAAGUGGCUGUGGCUAGAUUGCC it is 0.

Consider GGCAGAGCUUAACACAGCCUGACAACGUCGCUGUGGCUUGACUGCC, for which the self-cleavage is 0.18. For GGCAGAGCUUAGUACAGCGUGGCAAAGUGGAUGUGGCUAGACUUCC the value was 0.04; for GGCAGAGCUUAACACAGCGUCGCAAAGUGGCUGUGGCUAGACUGCA, 0.12; for GGCAGAGCUUAACACAGCGUGGCAAAGUGCCUGUGGCUAGACUUCC, 0.15.

Regarding GGCAGAGCUUAACACAGCGUGGCAAAGUGGCUGUGCCUAGACUCCC, the self-cleavage amounted to 0.03. For GGCAGAGCUUAACACAGCGUGCCAAAUUGGCUGUGGUUAGUCUGCC the value was 0.01; for GGCAGAGCUUAACACAGCGUGCCAAAGUGGCUUUGGCUAGACUGCC, 0.04; for GGCAGAGCUUAACACAGCGUGACAAAGUGGCUGUGUAUAGACUGCC, 0.02. For GGCAGAGCUUAACACAGCGGGGCAAAGUGGCUGUGGCUAGCUUGGC the value was 0.01; for GGCAGAGCUUAACACAGCGUGGCAAAGUGGCUUUGGCUAGACUGCU, 0.03. Consider GGCAGAGCUUAUCACAGCGUGGCAAAGUGGCUGUGGCUAGACUGAG, for which the self-cleavage stood at 0.05. In the case of GGCAGAGCUUAACAUAGCGUGGCAAAGUUGCUGUGGCUAGACUGCC, the self-cleavage was 0.19. For GGCAGAGCUUACCAAAGCGUGGCAAAGUGGCAGUGGAAAGACUUCC the value was 0.01; for GGCAGAGCUUAACACAGCGUGGCAAAGUGGCUCUAGCUAGACUGCC, 0.01; for GGCAGAGCUUAACACAGCGUAGCAAAGUGGCUGUGGCGAGACUGCC, 0.04.

Turning to GGCAGAGCUUAUCAAAGCGUGGCAAAGUGGCUGUGGCUAGACUUCC, the self-cleavage was 0.03.

Regarding GGCAGAGCUUAACACAGCAGGACAAAGUGGCUGUGGCUAGUCUGCC, the self-cleavage was determined as 0.06. For GGCAGAGCUUAGCAAAGCGUGGCAAAGUGGCUGUUGCUAGACUGCC the value was 0; for GGCAGAGCUUAACCCAGCGUGGCAAAGUAGCUGUGGCUAUACUGCC, 0.02; for GGCAGAGCUUAACACAGCGUGGCAAAAUUGCUGUGGCUAGACUGCC, 0.05. For GGCAGAGCUUAACGCAGCGUGGCAAAGUGGCUGUGGCUAGUCUGCC the value was 0.04; for GGCAGAGCUUAACAGAGCGUGGCAAAGUGGCUGUGGCUAAACUGAC, 0.02.

As to GGCAGAGCUUAACACAGCGUGGCAAAGUGGCUAUGGCUAUACUGCC, the self-cleavage was 0.05. The figure for GGCAGAGCUUAACACCGCGCGGAAAAGUGGCUGUGGCUAGACUGCC is 0.11.

Consider GGCAGAGCUUAACACCGCGUGGCAAAAUGGCUGUGGCUAGACUGCC, for which the self-cleavage came out at 0.11.

In the case of GGCAGAGCUUAACACAGCGUGGCUAAGUGGCGGUCGCUAGACUGCC, the self-cleavage came out at 0.08.

For GGCAGAGCUUAAAACGGCGUUGCAAAGUGGCUGUGGCUAGACUGCC, the self-cleavage stood at 0.02. Regarding GGCAGAGCUUAACACAUCGUGGCAUAGUGGCUGUGGCUAGACUGCA, the self-cleavage was 0.04. For GGCAGAGCUUAAUACAGCGUGGCAACGUGGCUGUGGUUAGACUGCC, the self-cleavage came to 0.
